Laboratory results published in the RNAGym collection of RNA variant scans (doi:10.7554/elife.90254).
Read counts are not given, so values of variants with three or more changes are uncertain.

B1: LINE1-mini (parent)
chain: GGCAGAGCUCAACACAGCGUGGCAAAGUGGCUGUGGCUAGACUGCC

Variants of: B1
Experiment: self-cleavage, relative activity (ratio to wild type); higher = more cleavage; in vitro, sequencing; the parent is a self-cleaving ribozyme

**Q.** For C15A A26G C37A C46U, which self-cleavage is on record?
**A.** 0.04

**Q.** With C8U U9A C10G as the variant, how does the self-cleavage read?
**A.** 0.05

**Q.** Which self-cleavage does the source give for U34G U43A G44U here?
**A.** 0.17

**Q.** For C23A U28G G30U, which self-cleavage is on record?
**A.** 0.27

**Q.** With G27C G33C C37G as the variant, how does the self-cleavage read?
**A.** 0.04

**Q.** Which self-cleavage does the source give for A16G G17U A39G here?
**A.** 0.07

**Q.** Which self-cleavage does the source give for G1A C8A G40A here?
**A.** 0.48

**Q.** With A4U A11U G30A as the variant, how does the self-cleavage read?
**A.** 0.05

**Q.** Which self-cleavage does the source give for A4C A16C G21C A25C C45A here?
**A.** 0.21

**Q.** With G2U A16G G17C C18U U28G C42U as the variant, how does the self-cleavage read?
**A.** 0

**Q.** For C3G C15A A26U G29A, which self-cleavage is on record?
**A.** 0.7

**Q.** Which self-cleavage does the source give for G30U A39U A41C here?
**A.** 0.05

**Q.** With G21C G36C C45G as the variant, how does the self-cleavage read?
**A.** 0.14

**Q.** For G2C G5U U20C G44C, which self-cleavage is on record?
**A.** 0.02

**Q.** For C13U C31G G36U C46A, which self-cleavage is on record?
**A.** 0.23

**Q.** Which self-cleavage does the source give for C10U A24U A26C A41C here?
**A.** 0.03

**Q.** Which self-cleavage does the source give for G1A U34G C37U here?
**A.** 0.06

**Q.** With G29U U43G G44U as the variant, how does the self-cleavage read?
**A.** 0.03

**Q.** With G7A A11C G40U as the variant, how does the self-cleavage read?
**A.** 0.02

**Q.** Which self-cleavage does the source give for A6C A12C G27C U28G U34C A39U here?
**A.** 0.02

**Q.** For G5A G19A G36U G40U, which self-cleavage is on record?
**A.** 0.03

**Q.** With G17C G33U C37G as the variant, how does the self-cleavage read?
**A.** 0.02

**Q.** With C8U A12C C13A G40U C46U as the variant, how does the self-cleavage read?
**A.** 0.05

**Q.** Which self-cleavage does the source give for A14U G22C C23A here?
**A.** 0.29

**Q.** For G2U G17U G29U C45U, which self-cleavage is on record?
**A.** 0

**Q.** For A14C C15A G22A, which self-cleavage is on record?
**A.** 0.01

**Q.** With G1U G5U A11C as the variant, how does the self-cleavage read?
**A.** 0.07

**Q.** Which self-cleavage does the source give for G1A C8G G19A C23U here?
**A.** 0.09

**Q.** For G5C A24C U32G G40C, which self-cleavage is on record?
**A.** 0.01

**Q.** Which self-cleavage does the source give for A11U G22A A26G C37G C45G here?
**A.** 0.01

**Q.** For C13G C15U G22A, which self-cleavage is on record?
**A.** 0.07

**Q.** With C23A A24U G29U as the variant, how does the self-cleavage read?
**A.** 0.5

**Q.** For G7U C15A U38A, which self-cleavage is on record?
**A.** 0.09

**Q.** For C3U A14G G40U, which self-cleavage is on record?
**A.** 0.02

**Q.** For A12G A16C C23U, which self-cleavage is on record?
**A.** 0.01

**Q.** Which self-cleavage does the source give for C3G G17C G21A A39C here?
**A.** 0.02

**Q.** Which self-cleavage does the source give for C13A C23U A26G C42G here?
**A.** 0

**Q.** With G2A G17C A25U U43G as the variant, how does the self-cleavage read?
**A.** 0.2

**Q.** With G2A A12U C45U as the variant, how does the self-cleavage read?
**A.** 0.62

**Q.** Which self-cleavage does the source give for G2U C42A U43C here?
**A.** 0.42

**Q.** With C3G C10U A26U G35A C37G as the variant, how does the self-cleavage read?
**A.** 0.06

**Q.** With G5A G7C G29U G36U as the variant, how does the self-cleavage read?
**A.** 0.03

**Q.** Which self-cleavage does the source give for G2C A26C G33A A39C here?
**A.** 0.02

**Q.** For G5U A6G U9C G44C, which self-cleavage is on record?
**A.** 0.03

**Q.** For G1A C15A A25C, which self-cleavage is on record?
**A.** 0.03

**Q.** Which self-cleavage does the source give for G19U C31U G35U here?
**A.** 0.02

**Q.** Which self-cleavage does the source give for G21U G22A G36C here?
**A.** 0.05

**Q.** Which self-cleavage does the source give for G7U U9C U34C G44U C46G here?
**A.** 0.03

**Q.** With C15A U20C A24G A39G as the variant, how does the self-cleavage read?
**A.** 0.02

**Q.** With A14C G30U C37A A39G C45U as the variant, how does the self-cleavage read?
**A.** 0.07

**Q.** Which self-cleavage does the source give for C10A C23G A24G C46A here?
**A.** 0.11

**Q.** With A4C G7A U9G as the variant, how does the self-cleavage read?
**A.** 0.09

**Q.** Which self-cleavage does the source give for A12U A16G G22U G30C here?
**A.** 0.23

**Q.** Which self-cleavage does the source give for U9G G19A G27U here?
**A.** 0.05

**Q.** Which self-cleavage does the source give for G1A G7C G36U G40U here?
**A.** 0.32

**Q.** With A11C C23G C37G as the variant, how does the self-cleavage read?
**A.** 0

**Q.** For G2A C8A C23G G29A C42G G44C, which self-cleavage is on record?
**A.** 0.21

**Q.** For C3U U28G A39U G40C U43G, which self-cleavage is on record?
**A.** 0.01

**Q.** Which self-cleavage does the source give for A4U C8U A41U G44A here?
**A.** 0.35

**Q.** Which self-cleavage does the source give for U9G G21A G30U A41C here?
**A.** 0.04

**Q.** For A4C G30A U38A C45G, which self-cleavage is on record?
**A.** 0.56

**Q.** With C8U U9C A12G G19A C23A U38G A39C A41U C42G as the variant, how does the self-cleavage read?
**A.** 0

**Q.** With C8A G27A G30C as the variant, how does the self-cleavage read?
**A.** 0.37

**Q.** For C13U G17C A26U G29U A39G, which self-cleavage is on record?
**A.** 0.3

**Q.** With U9A C13A G27U as the variant, how does the self-cleavage read?
**A.** 0.22

**Q.** Which self-cleavage does the source give for C3A C8G C18U G19U here?
**A.** 1.84

**Q.** Which self-cleavage does the source give for G22A G27U C31A here?
**A.** 0.74

**Q.** Which self-cleavage does the source give for U28G G33C C37A here?
**A.** 0.02

**Q.** For C8U A12G C15A C23A C46U, which self-cleavage is on record?
**A.** 0.06

**Q.** For A25U A39G G44U C45U, which self-cleavage is on record?
**A.** 0.03

**Q.** Which self-cleavage does the source give for A12C U32G G36C G40U here?
**A.** 0.02

**Q.** Which self-cleavage does the source give for U20G G29U G35U G36C A41C G44U here?
**A.** 0.4

**Q.** For A14G G17U C18A, which self-cleavage is on record?
**A.** 0.12

**Q.** Which self-cleavage does the source give for C13G G27U U43A here?
**A.** 0.05

**Q.** Which self-cleavage does the source give for G2U G22A G33C here?
**A.** 0.06

**Q.** Which self-cleavage does the source give for C10G C23G U38A here?
**A.** 0.01

**Q.** For A4C A11C C37U, which self-cleavage is on record?
**A.** 0.01

**Q.** Which self-cleavage does the source give for A6C G7U A14C here?
**A.** 0.04

**Q.** For C8U C10A G22U A26U G29U C31U, which self-cleavage is on record?
**A.** 0.03

**Q.** For A4C G17A G19A, which self-cleavage is on record?
**A.** 0.27

**Q.** With C3G A12U A14C as the variant, how does the self-cleavage read?
**A.** 0.05

**Q.** For C3A G5C C31A, which self-cleavage is on record?
**A.** 0.07

**Q.** For G5A U20C A39G, which self-cleavage is on record?
**A.** 0.01
